This is one part of the list.
What was measured:
Assay in all cases: glycan array binding signal (z-score within array); higher = stronger binding
Conditions in all cases: glycan notation: IUPAC condensed, linker removed
[1] = target: Fuc(a1-2)[Gal(a1-3)]Gal(b1-4)GlcNAc(b1-2)Man(a1-3)[Fuc(a1-2)[Gal(a1-3)]Gal(b1-4)GlcNAc(b1-2)Man(a1-6)]Man(b1-4)GlcNAc(b1-4)GlcNAc
Procedure, shortened: (§1)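 The binding signal is a Z-score computed within each array. Data were drawn from 3228 arrays in the Consortium for Functional Glycomics database, restricted to those with a known protein sequence. Scores were averaged over arrays of the same protein sequence at different concentrations or buffers, and over linkers, and negative values can be taken as non-binding.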

[2] = target: Fuc(a1-2)[Gal(a1-3)]Gal(b1-4)GlcNAc(b1-2)Man(a1-3)[Fuc(a1-2)[Gal(a1-3)]Gal(b1-4)GlcNAc(b1-2)Man(a1-6)]Man(b1-4)GlcNAc(b1-4)[Fuc(a1-6)]GlcNAc
Procedure, shortened: as §1

[3] = target: Fuc(a1-2)[Gal(a1-3)]Gal(b1-4)GlcNAc(b1-3)GalNAc
Procedure, shortened: as §1

[4] = target: Fuc(a1-2)[Gal(a1-3)]Gal(b1-4)GlcNAc(b1-6)GalNAc
Procedure, shortened: as §1

[5] = target: Fuc(a1-2)[Gal(a1-3)]Gal(b1-4)[Fuc(a1-3)]Glc
Procedure, shortened: as §1

[6] = target: Fuc(a1-2)[Gal(a1-3)]Gal(b1-4)[Fuc(a1-3)]GlcNAc
Procedure, shortened: as §1

[7] = target: Fuc(a1-2)[Gal(a1-3)]Gal(b1-4)[Fuc(a1-3)]GlcNAc(b1-3)GalNAc
Procedure, shortened: as §1

[8] = target: Fuc(a1-2)[Gal(a1-4)]Gal(b1-4)GlcNAc
Procedure, shortened: as §1

[9] = target: Fuc(a1-2)[GalNAc(a1-3)]Gal
Procedure, shortened: as §1

[10] = target: Fuc(a1-2)[GalNAc(a1-3)]Gal(b1-3)GalNAc(a1-3)[Fuc(a1-2)]Gal(b1-4)GlcNAc
Procedure, shortened: as §1

[11] = target: Fuc(a1-2)[GalNAc(a1-3)]Gal(b1-3)GalNAc(b1-3)Gal(a1-4)Gal(b1-4)Glc
Procedure, shortened: as §1

[12] = target: Fuc(a1-2)[GalNAc(a1-3)]Gal(b1-3)GlcNAc
Procedure, shortened: as §1

[13] = target: Fuc(a1-2)[GalNAc(a1-3)]Gal(b1-3)GlcNAc(b1-2)Man(a1-3)[Fuc(a1-2)[GalNAc(a1-3)]Gal(b1-3)GlcNAc(b1-2)Man(a1-6)]Man(b1-4)GlcNAc(b1-4)GlcNAc
Procedure, shortened: as §1

[14] = target: Fuc(a1-2)[GalNAc(a1-3)]Gal(b1-3)GlcNAc(b1-2)Man(a1-3)[Fuc(a1-2)[GalNAc(a1-3)]Gal(b1-3)GlcNAc(b1-2)Man(a1-6)]Man(b1-4)GlcNAc(b1-4)[Fuc(a1-6)]GlcNAc
Procedure, shortened: as §1

[15] = target: Fuc(a1-2)[GalNAc(a1-3)]Gal(b1-3)GlcNAc(b1-3)GalNAc
Procedure, shortened: as §1

[16] = target: Fuc(a1-2)[GalNAc(a1-3)]Gal(b1-3)GlcNAc(b1-6)GalNAc
Procedure, shortened: as §1

[17] = target: Fuc(a1-2)[GalNAc(a1-3)]Gal(b1-4)Glc
Procedure, shortened: as §1

[18] = target: Fuc(a1-2)[GalNAc(a1-3)]Gal(b1-4)GlcNAc
Procedure, shortened: as §1

[19] = target: Fuc(a1-2)[GalNAc(a1-3)]Gal(b1-4)GlcNAc(b1-2)Man
Procedure, shortened: as §1

[20] = target: Fuc(a1-2)[GalNAc(a1-3)]Gal(b1-4)GlcNAc(b1-2)Man(a1-3)[Fuc(a1-2)[GalNAc(a1-3)]Gal(b1-4)GlcNAc(b1-2)Man(a1-6)]Man(b1-4)GlcNAc(b1-4)GlcNAc
Procedure, shortened: as §1

[21] = target: Fuc(a1-2)[GalNAc(a1-3)]Gal(b1-4)GlcNAc(b1-2)Man(a1-3)[Fuc(a1-2)[GalNAc(a1-3)]Gal(b1-4)GlcNAc(b1-2)Man(a1-6)]Man(b1-4)GlcNAc(b1-4)[Fuc(a1-6)]GlcNAc
Procedure, shortened: as §1

[22] = target: Fuc(a1-2)[GalNAc(a1-3)]Gal(b1-4)GlcNAc(b1-3)Gal(b1-4)GlcNAc
Procedure, shortened: as §1

[23] = target: Fuc(a1-2)[GalNAc(a1-3)]Gal(b1-4)GlcNAc(b1-3)Gal(b1-4)GlcNAc(b1-3)Gal(b1-4)GlcNAc
Procedure, shortened: as §1

[24] = target: Fuc(a1-2)[GalNAc(a1-3)]Gal(b1-4)GlcNAc(b1-3)GalNAc
Procedure, shortened: as §1

[25] = target: Fuc(a1-2)[GalNAc(a1-3)]Gal(b1-4)GlcNAc(b1-3)[Fuc(a1-2)[GalNAc(a1-3)]Gal(b1-4)GlcNAc(b1-6)]GalNAc
Procedure, shortened: as §1

[26] = target: Fuc(a1-2)[GalNAc(a1-3)]Gal(b1-4)GlcNAc(b1-6)GalNAc
Procedure, shortened: as §1

[27] = target: Fuc(a1-2)[GalNAc(a1-3)]Gal(b1-4)[Fuc(a1-3)]GlcNAc
Procedure, shortened: as §1

[28] = target: Fuc(a1-2)[GalNAc(a1-3)]Gal(b1-4)[Fuc(a1-3)]GlcNAc(b1-3)GalNAc
Procedure, shortened: as §1

[29] = target: Fuc(a1-2)[GalNAc(a1-4)]Gal(b1-4)GlcNAc
Procedure, shortened: as §1

[30] = target: Fuc(a1-2)[GalNAc(b1-3)]Gal
Procedure, shortened: as §1

Fuc(a1-3)GlcNAc = target: Fuc(a1-3)GlcNAc
Procedure, shortened: as §1

[31] = target: Fuc(a1-3)[Gal(b1-4)]Glc6S
Procedure, shortened: as §1

[32] = target: Fuc(a1-3)[Gal(b1-4)]GlcNAc
Procedure, shortened: as §1

[33] = target: Fuc(a1-3)[Gal(b1-4)]GlcNAc(b1-2)Man
Procedure, shortened: as §1

[34] = target: Fuc(a1-3)[Gal(b1-4)]GlcNAc(b1-2)Man(a1-3)[Fuc(a1-3)[Gal(b1-4)]GlcNAc(b1-2)Man(a1-6)]Man(b1-4)GlcNAc(b1-4)GlcNAc
Procedure, shortened: as §1

[35] = target: Fuc(a1-3)[Gal(b1-4)]GlcNAc(b1-2)Man(a1-3)[Fuc(a1-3)[Gal(b1-4)]GlcNAc(b1-2)Man(a1-6)]Man(b1-4)GlcNAc(b1-4)[Fuc(a1-6)]GlcNAc
Procedure, shortened: as §1

[36] = target: Fuc(a1-3)[Gal(b1-4)]GlcNAc(b1-3)Gal(b1-3)[Fuc(a1-4)]GlcNAc
Procedure, shortened: as §1

[37] = target: Fuc(a1-3)[Gal(b1-4)]GlcNAc(b1-3)Gal(b1-4)[Fuc(a1-3)]GlcNAc
Procedure, shortened: as §1

[38] = target: Fuc(a1-3)[Gal(b1-4)]GlcNAc(b1-3)Gal(b1-4)[Fuc(a1-3)]GlcNAc(b1-3)Gal(b1-4)[Fuc(a1-3)]GlcNAc
Procedure, shortened: as §1

[39] = target: Fuc(a1-3)[Gal(b1-4)]GlcNAc(b1-3)GalNAc
Procedure, shortened: as §1

[40] = target: Fuc(a1-3)[Gal(b1-4)]GlcNAc(b1-6)GalNAc
Procedure, shortened: as §1

[41] = target: Fuc(a1-3)[Gal(b1-4)]GlcNAc(b1-6)[Gal(b1-3)GlcNAc(b1-3)]Gal(b1-4)Glc
Procedure, shortened: as §1

[42] = target: Fuc(a1-3)[Gal(b1-4)]GlcNAc6S
Procedure, shortened: as §1

[43] = target: Fuc(a1-3)[Gal3S(b1-4)]Glc
Procedure, shortened: as §1

[44] = target: Fuc(a1-3)[Gal3S(b1-4)]GlcNAc
Procedure, shortened: as §1

B1: NKR-PIC (Mus musculus) (protein)
chain: GTGQKPSREKCCVFIQENLNKTTDCSVNLECPQDWLLHRDKCFHVSQVSNTWEEGQADCGRKGATLLLIQDQEELRFLLDSIKEKYNSFWIGLRFTLPDMNWKWINGTTFNSDVLKITGVTENGSCASILGDKVTPESCASDNRWICQKELNHETPSNDSGT
[1]
  glycan array binding signal (z-score): -0.284
[2]
  glycan array binding signal (z-score): -0.335
[3]
  glycan array binding signal (z-score): -0.29
[4]
  glycan array binding signal (z-score): -0.381
[5]
  glycan array binding signal (z-score): -0.341
[6]
  glycan array binding signal (z-score): -0.31
[7]
  glycan array binding signal (z-score): -0.336
[8]
  glycan array binding signal (z-score): 0.036
[9]
  glycan array binding signal (z-score): -0.234
[10]
  glycan array binding signal (z-score): -0.091
[11]
  glycan array binding signal (z-score): -0.36
[12]
  glycan array binding signal (z-score): -0.378
[13]
  glycan array binding signal (z-score): -0.358
[14]
  glycan array binding signal (z-score): -0.375
[15]
  glycan array binding signal (z-score): -0.376
[16]
  glycan array binding signal (z-score): -0.363
[17]
  glycan array binding signal (z-score): -0.354
[18]
  glycan array binding signal (z-score): 1.5
[19]
  glycan array binding signal (z-score): -0.369
[20]
  glycan array binding signal (z-score): -0.301
[21]
  glycan array binding signal (z-score): -0.283
[22]
  glycan array binding signal (z-score): 0.488
[23]
  glycan array binding signal (z-score): -0.243
[24]
  glycan array binding signal (z-score): -0.369
[25]
  glycan array binding signal (z-score): -0.334
[26]
  glycan array binding signal (z-score): 0.131
[27]
  glycan array binding signal (z-score): -0.33
[28]
  glycan array binding signal (z-score): -0.341
[29]
  glycan array binding signal (z-score): 3.44
[30]
  glycan array binding signal (z-score): -0.316
Fuc(a1-3)GlcNAc
  glycan array binding signal (z-score): -0.304
[31]
  glycan array binding signal (z-score): -0.303
[32]
  glycan array binding signal (z-score): -0.348
[33]
  glycan array binding signal (z-score): -0.306
[34]
  glycan array binding signal (z-score): -0.295
[35]
  glycan array binding signal (z-score): -0.389
[36]
  glycan array binding signal (z-score): -0.287
[37]
  glycan array binding signal (z-score): -0.323
[38]
  glycan array binding signal (z-score): -0.363
[39]
  glycan array binding signal (z-score): -0.302
[40]
  glycan array binding signal (z-score): -0.343
[41]
  glycan array binding signal (z-score): -0.207
[42]
  glycan array binding signal (z-score): -0.314
[43]
  glycan array binding signal (z-score): -0.346
[44]
  glycan array binding signal (z-score): -0.278
